According to the supplement of paper PMC12217912:
The other results are listed elsewhere or left out. The full chains were built here from the parent and the listed change. Values near 0.05 are background.

B1: TEV protease; numbered along this chain (parent)
chain: MGESLFKGPRDYNPISSSICHLTNESDGHTTSLYGIGFGPFIITNKHLFRRNNGTLVVQSLHGVFKVKDTTTLQQHLVDGRDMIIIRMPKDFPPFPQKLKFREPQREERICLVTTNFQTKSMSSMVSDTSCTFPSGDGIFWKHWIQTKDGQCGSPLVSTRDGFIVGIHSASNFTNTNNYFTSVPKNFMELLTNQEAQQWVSGWRLNADSVLWGGHKVFMVKPEEPFQPVKEATQL

Variants of: B1
Assay: raw area under fraction-flipped curve 0-4 h after induction (AUC4h, not background-subtracted), DNA-recorder readout of cleavage of the substrate (dimensionless); higher = more cleavage of the substrate by the protease variant
Details: temperature: 34 °C; time window: 0-4 h after rhamnose induction
Method: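 In vivo DNA recorder in E. coli TOP10(DE3) ΔrhaA at 34 °C. Each TEVp single-site mutant (parent TEVp 0) is paired with a single-site variant of the 7-mer TEVs (canonical ENLYFQ|S). The substrate sits between flexible linkers in a Bxb1-sfGFP-TEVs-SsrA fusion, so cleavage stabilises Bxb1 and speeds flipping of a recombination array, read by NGS. The value is the raw area under the fraction-flipped curve over 0-4 h after rhamnose induction (AUC4h), with ≥20 reads per time point. It is not background-subtracted; inactive controls average about 0.047.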
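Note: Bxb1 expression induced with 0.2% (w/v) L-rhamnose at OD600 near 0.5, cultures sampled hourly, flipped fraction per protease–substrate barcode pair counted by paired-end Illumina sequencing.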

K230I
area with substrate ENLYFCS: 0.0578
area with substrate ENLYFES: 0.0617
area with substrate ENLYFFS: 0.0702
area with substrate ENLYFGS: 0.0504
area with substrate ENLYFIS: 0.0453
area with substrate ENLYFLS: 0.0621
area with substrate ENLYFMS: 0.0639
area with substrate ENLYFNS: 0.0647
area with substrate ENLYFPS: 0.0635
area with substrate ENLYFRS: 0.0535
area with substrate ENLYFSS: 0.071
area with substrate ENLYFTS: 0.0471
area with substrate ENLYFVS: 0.0617

Q234F
area with substrate ENLYFCS: 0.0733
area with substrate ENLYFDS: 0.0454
area with substrate ENLYFGS: 0.0715
area with substrate ENLYFIS: 0.0522
area with substrate ENLYFKS: 0.0554
area with substrate ENLYFMS: 0.0733
area with substrate ENLYFNS: 0.0547
area with substrate ENLYFPS: 0.0683
area with substrate ENLYFRS: 0.0605
area with substrate ENLYFSS: 0.0606
area with substrate ENLYFWS: 0.0751
area with substrate ENLYFYS: 0.0492

R10E
area with substrate ENLYFDS: 0.0408
area with substrate ENLYFES: 0.0652
area with substrate ENLYFFS: 0.0635
area with substrate ENLYFIS: 0.0642
area with substrate ENLYFKS: 0.0585
area with substrate ENLYFMS: 0.0655
area with substrate ENLYFPS: 0.063
area with substrate ENLYFRS: 0.0666
area with substrate ENLYFSS: 0.0725
area with substrate ENLYFTS: 0.0469
area with substrate ENLYFVS: 0.0587
area with substrate ENLYFWS: 0.0539

P14D
area with substrate ENLYFDS: 0.0476
area with substrate ENLYFES: 0.0638
area with substrate ENLYFFS: 0.0654
area with substrate ENLYFGS: 0.0401
area with substrate ENLYFHS: 0.056
area with substrate ENLYFIS: 0.0748
area with substrate ENLYFKS: 0.0598
area with substrate ENLYFLS: 0.0501
area with substrate ENLYFMS: 0.065
area with substrate ENLYFNS: 0.0563
area with substrate ENLYFPS: 0.0553
area with substrate ENLYFRS: 0.0516
area with substrate ENLYFSS: 0.0674
area with substrate ENLYFTS: 0.0908
area with substrate ENLYFVS: 0.057
area with substrate ENLYFWS: 0.0638
area with substrate ENLYFYS: 0.0608

N24M
area with substrate ENLYFDS: 0.0758
area with substrate ENLYFES: 0.0749
area with substrate ENLYFIS: 0.0492
area with substrate ENLYFKS: 0.0476
area with substrate ENLYFLS: 0.0548
area with substrate ENLYFMS: 0.0633
area with substrate ENLYFNS: 0.06

T30N
area with substrate ENLYFDS: 0.0625
area with substrate ENLYFES: 0.0679
area with substrate ENLYFFS: 0.0574
area with substrate ENLYFHS: 0.0587
area with substrate ENLYFIS: 0.0597
area with substrate ENLYFKS: 0.0577
area with substrate ENLYFLS: 0.0636
area with substrate ENLYFNS: 0.0642
area with substrate ENLYFPS: 0.0636
area with substrate ENLYFRS: 0.0611
area with substrate ENLYFTS: 0.0532
area with substrate ENLYFVS: 0.052
area with substrate ENLYFWS: 0.0523

F38G
area with substrate ENLYFDS: 0.0428
area with substrate ENLYFNS: 0.0527
area with substrate ENLYFPS: 0.0342
area with substrate ENLYFTS: 0.0522
area with substrate ENLYFVS: 0.0654

I43G
area with substrate ENLYFDS: 0.0464
area with substrate ENLYFFS: 0.0507
area with substrate ENLYFIS: 0.0379
area with substrate ENLYFKS: 0.0417
area with substrate ENLYFLS: 0.0532
area with substrate ENLYFMS: 0.0457
area with substrate ENLYFPS: 0.0561
area with substrate ENLYFVS: 0.0314
area with substrate ENLYFWS: 0.0519

Q59M
area with substrate ENLYFDS: 0.0624
area with substrate ENLYFFS: 0.0557
area with substrate ENLYFGS: 0.0476
area with substrate ENLYFIS: 0.0466
area with substrate ENLYFKS: 0.053
area with substrate ENLYFLS: 0.0516
area with substrate ENLYFMS: 0.0511
area with substrate ENLYFPS: 0.0682
area with substrate ENLYFRS: 0.0589
area with substrate ENLYFSS: 0.0754
area with substrate ENLYFTS: 0.0196
area with substrate ENLYFVS: 0.0519
area with substrate ENLYFWS: 0.0577
area with substrate ENLYFYS: 0.0582

Q74C
area with substrate ENLYFDS: 0.0372
area with substrate ENLYFES: 0.0651
area with substrate ENLYFIS: 0.0574
area with substrate ENLYFKS: 0.0536
area with substrate ENLYFMS: 0.0792
area with substrate ENLYFNS: 0.0725
area with substrate ENLYFPS: 0.0585
area with substrate ENLYFRS: 0.052
area with substrate ENLYFSS: 0.0623
area with substrate ENLYFTS: 0.0661
area with substrate ENLYFWS: 0.0446
area with substrate ENLYFYS: 0.0706

L77W
area with substrate ENLYFDS: 0.0708
area with substrate ENLYFFS: 0.081
area with substrate ENLYFGS: 0.0634
area with substrate ENLYFIS: 0.0597
area with substrate ENLYFLS: 0.063
area with substrate ENLYFMS: 0.0567
area with substrate ENLYFPS: 0.0553
area with substrate ENLYFSS: 0.0522
area with substrate ENLYFTS: 0.0505
area with substrate ENLYFVS: 0.0658
area with substrate ENLYFWS: 0.052
area with substrate ENLYFYS: 0.0585

M83C
area with substrate ENLYFDS: 0.0567
area with substrate ENLYFES: 0.0752
area with substrate ENLYFIS: 0.0536
area with substrate ENLYFLS: 0.0554
area with substrate ENLYFMS: 0.0572
area with substrate ENLYFNS: 0.0795
area with substrate ENLYFPS: 0.0595
area with substrate ENLYFRS: 0.053
area with substrate ENLYFSS: 0.0676
area with substrate ENLYFTS: 0.0597
area with substrate ENLYFVS: 0.0145
area with substrate ENLYFWS: 0.0445

M122N
area with substrate ENLYFDS: 0.0562
area with substrate ENLYFES: 0.0592
area with substrate ENLYFFS: 0.0647
area with substrate ENLYFHS: 0.0595
area with substrate ENLYFIS: 0.0675
area with substrate ENLYFKS: 0.056
area with substrate ENLYFMS: 0.0647
area with substrate ENLYFNS: 0.0854
area with substrate ENLYFPS: 0.0636
area with substrate ENLYFTS: 0.0595
area with substrate ENLYFVS: 0.0776

M125S
area with substrate ENLYFDS: 0.0589
area with substrate ENLYFES: 0.0578
area with substrate ENLYFGS: 0.0569
area with substrate ENLYFHS: 0.0561
area with substrate ENLYFIS: 0.0629
area with substrate ENLYFMS: 0.0777
area with substrate ENLYFPS: 0.0507
area with substrate ENLYFSS: 0.0511
area with substrate ENLYFTS: 0.0648
area with substrate ENLYFVS: 0.0615
area with substrate ENLYFWS: 0.0504

D128V
area with substrate ENLYFDS: 0.0953
area with substrate ENLYFES: 0.0662
area with substrate ENLYFFS: 0.0677
area with substrate ENLYFHS: 0.0647
area with substrate ENLYFIS: 0.0488
area with substrate ENLYFMS: 0.0617
area with substrate ENLYFPS: 0.0526
area with substrate ENLYFSS: 0.05
area with substrate ENLYFTS: 0.0891
area with substrate ENLYFWS: 0.0528
area with substrate ENLYFYS: 0.0594
